# Experimental data reported in paper PMC4336329 (PLoS ONE, 2015).
# In all, about 310,000 compounds went through this assay and about 2,200 (0.71%) showed an effect of 50% or more. Effects have a minus sign here. This is one part of the list.
# Molecular target: human ether-à-go-go-related gene (hERG) potassium channel (human, UniProt Q12809)
# Experiment: primary screen, population patch clamp on CHO cells stably expressing hERG
# Chain of human ether-à-go-go-related gene (hERG) potassium channel (Q12809 whole entry, looked up): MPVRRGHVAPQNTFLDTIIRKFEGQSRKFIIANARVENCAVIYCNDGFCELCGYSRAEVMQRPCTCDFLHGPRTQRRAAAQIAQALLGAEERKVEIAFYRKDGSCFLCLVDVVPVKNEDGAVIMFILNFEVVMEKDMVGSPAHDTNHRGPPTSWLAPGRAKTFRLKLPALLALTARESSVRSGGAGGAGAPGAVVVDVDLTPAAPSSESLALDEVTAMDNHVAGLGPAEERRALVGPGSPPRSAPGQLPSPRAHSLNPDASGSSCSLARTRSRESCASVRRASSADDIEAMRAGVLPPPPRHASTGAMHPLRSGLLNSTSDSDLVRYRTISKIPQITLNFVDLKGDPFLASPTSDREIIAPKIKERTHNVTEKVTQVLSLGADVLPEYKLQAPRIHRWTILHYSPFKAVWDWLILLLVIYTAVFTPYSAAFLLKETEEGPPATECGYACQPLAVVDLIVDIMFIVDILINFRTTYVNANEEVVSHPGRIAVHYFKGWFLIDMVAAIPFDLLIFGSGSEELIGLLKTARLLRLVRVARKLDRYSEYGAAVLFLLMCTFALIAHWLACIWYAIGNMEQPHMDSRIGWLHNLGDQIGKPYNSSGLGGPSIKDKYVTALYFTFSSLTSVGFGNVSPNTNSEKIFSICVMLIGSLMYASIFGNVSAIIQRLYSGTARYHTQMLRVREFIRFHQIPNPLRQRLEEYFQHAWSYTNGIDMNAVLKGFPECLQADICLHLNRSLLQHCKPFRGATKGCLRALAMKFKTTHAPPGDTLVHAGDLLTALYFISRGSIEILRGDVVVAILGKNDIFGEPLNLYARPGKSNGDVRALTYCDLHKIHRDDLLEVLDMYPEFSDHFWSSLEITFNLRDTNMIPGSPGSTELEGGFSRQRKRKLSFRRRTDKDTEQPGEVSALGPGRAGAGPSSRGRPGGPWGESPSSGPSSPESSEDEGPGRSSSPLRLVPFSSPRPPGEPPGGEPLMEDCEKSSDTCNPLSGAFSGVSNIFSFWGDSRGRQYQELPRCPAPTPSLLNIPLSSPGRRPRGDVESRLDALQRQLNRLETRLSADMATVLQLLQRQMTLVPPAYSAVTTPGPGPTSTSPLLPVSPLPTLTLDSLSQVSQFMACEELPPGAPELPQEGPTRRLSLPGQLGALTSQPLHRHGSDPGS
row,SMILES,"hERG current change (%, negative = inhibition) at 1uM [%]"
1,COc1cccc(NC(=O)CN2CCc3ccccc3C2)c1,18.4
2,O=[N+]([O-])c1ccc(-c2csc(Nc3ccccc3)[n+]2Cc2ccccc2)cc1.[Br-],28.3
3,CCOc1ccc(NC(=O)COC(=O)C23CC4CC(CC(C4)C2)C3)c([N+](=O)[O-])c1,9.18
4,COc1cc([N+](=O)[O-])ccc1NC(=O)CSc1nnc(C)c(C)n1,4.53
5,Cc1[nH]c2ccccc2c1CCNC(=O)c1ccc2nccnc2c1,13.9
6,Nc1ccc2nc(N3CCOCC3)sc2c1,15.4
7,Cc1nc(SCC(=O)NC2CCS(=O)(=O)C2)c(C#N)c(C)c1C (stereo not drawn),8.69
8,O=C(Nc1cccc(CCc2ccccn2)c1)c1cc(F)c(F)cc1Cl,2.96
9,Cc1cccc(NC(=O)C2CCCN(S(=O)(=O)c3cccc4nonc34)C2)c1 (stereo not drawn),19.1
10,Cc1nn(C)c(C(=O)NN)c1Cl,6.21
11,CC(=O)N1c2ccc(S(=O)(=O)NCCC(=O)NC3CCC(C)CC3)cc2CC1C (stereo not drawn),14.1
12,O=[N+]([O-])c1cc(C(F)(F)F)cc([N+](=O)[O-])c1N1CCCNCC1,5.07
13,O=C(NNC(=O)c1ccccc1OCc1ccc(F)cc1)c1ccncc1,3.95
14,CSc1nc2ccc(NC(=O)C3CCCO3)cc2s1 (stereo not drawn),3.92
15,COC(=O)NNC(=O)c1ccc(C)c(Br)c1,16.4
16,Cc1c(O)ccc2cc(S(=O)(=O)c3ccccc3)c(=O)oc12,14
17,Cc1cccc(N2CCN(S(=O)(=O)c3ccc(S(=O)(=O)N4CCCC4)cc3)CC2)c1C,10.3
18,CCN(CC)c1ccc(-c2nc3cnccn3c2NC2CCCC2)cc1,5.75
19,CN1C[C@@H]2C(c3ccc(Cl)nc3)C3(c4ccccc4)CC2(C3)[C@H]1c1ccccc1 (stereo partly drawn),2.6
20,COc1ccccc1CN(CC(=O)NCc1ccc2c(c1)OCO2)C(=O)c1ccc2c(c1)OCCO2,7.55
21,Cc1cc(C(=O)Nc2cccc([N+](=O)[O-])c2)c(C)o1,4.4
22,CC(C)(C(=O)c1ccccc1)/[N+]([O-])=C/c1ccccc1F,9.19

row,SMILES,"hERG current change (%, negative = inhibition) at 1uM [%]"
1,O=C(NCc1cccnc1)C(=O)NC1CCCCC1,-3.95
2,Brc1ccc(C2=Nc3ccccc3C(c3ccncc3)=NN2)cc1,14.5
3,CCOC(=O)c1nnn(-c2nonc2N)c1COc1c(C=O)cccc1OC,-12.9
4,CC(C)(C)OC(=O)CN1c2cccc3cccc(c23)S1(=O)=O,8.39
5,CCc1ccc2nc(NC(=O)c3cc(C)on3)sc2c1,3.39
6,C=CCNc1ncnc2c1cnn2-c1cccc(C)c1,7.45
7,CC1(N2CCOCC2)C(=O)c2ccccc2C1=O.Cl,-8.82
8,Cc1nn(C)c(C(=O)N/N=C/c2cccnc2)c1Br,16.9
9,c1ccc(Cc2ccc(OCCn3cncn3)cc2)cc1,-1.47
10,COC(=O)C1=C(c2ccc(F)cc2OCc2ccccc2)C[C@@H]2CC[C@H]1N2C(=O)NCc1ccco1,2.23
11,CCCCN(C(=O)c1ccc(S(=O)(=O)N2CCCC2)cc1)C1CCS(=O)(=O)C1 (stereo not drawn),6.71
12,Cc1cccc(OCC(=O)Nc2cccc(-c3nnc(-c4ccccc4)o3)c2)c1C,1.91
13,CC(C)C1(C)N=C(c2nc3ccccc3cc2C(=O)O)NC1=O (stereo not drawn),-0.255
14,COc1ccc(S(=O)(=O)N2CC(C(=O)O)Oc3ccccc32)cc1 (stereo not drawn),16
15,O=C(CSc1nnc(-c2ccco2)n1-c1ccccc1)NCc1ccco1,-19.1
16,Cc1cc(NC(=O)CCC(=O)N(c2cccnc2)C(C(=O)NC2CCCC2)c2ccccc2F)no1 (stereo not drawn),8.56
17,O=C(Nc1cccc(F)c1)C1CCCN(S(=O)(=O)c2ccc(-n3cnnn3)cc2)C1 (stereo not drawn),-2.85
18,Cc1ccc(-c2csc3ncnc(N4CCN(c5ccccc5O)CC4)c23)cc1,18.7
19,Cc1ccc2cc(C=C(C#N)C#N)c(N3CCCCC3)nc2c1,9.77
20,COc1cc2cc(C)nc(Cc3cccc4ccccc34)c2cc1OC,10.1
21,CCOC(=O)C1CCN(C(=O)c2cccc(S(=O)(=O)Nc3ccc(C)cc3C)c2)CC1,17.5
22,COCCCNc1nc(N)c([N+](=O)[O-])c(Nc2ccccc2OC)n1,17.4

row,SMILES,"hERG current change (%, negative = inhibition) at 1uM [%]"
1,CCc1sc2nc(SCC(=O)Nc3cc(C)on3)n(-c3cccc(OC)c3)c(=O)c2c1C,26.6
2,CCOC(=O)C1CCCN(c2ncnc3c2cnn3-c2cccc(C)c2)C1 (stereo not drawn),-4.9
3,O=C(O)Cc1c(-c2ccccc2Cl)c2cc(Br)ccc2[nH]c1=O,4.33
4,Fc1ccccc1-c1n[nH]c(=S)n1Cc1ccccc1,16.6
5,Cc1ccc(S(=O)(=O)C2(C(=O)Nc3cccnc3)CC2)cc1,3.33
6,C/C(=N\NC(=O)COc1ccc(C#N)cc1)c1ccccc1OC(F)F,6.16
7,CCS(=O)(=O)c1cc([N+](=O)[O-])c(Sc2ccccc2N)s1,9.09
8,O=C(/C=C/c1ccco1)Nc1ccc2nn(-c3ccccc3)nc2c1,5.34
9,COc1cccc(NS(=O)(=O)c2ccc3[nH]cc(C(=O)N(C)Cc4ccco4)c(=O)c3c2)c1,15.6
10,O=C(CCc1ccc(O)c(O)c1)NNC(=S)NCCc1ccccc1,11.3
11,CC(=O)OC1(c2ccccc2)CCN(C)CC1(C)C.Cl (stereo not drawn),21.7
12,O=C(COC(=O)/C=C/c1cccc(C(F)(F)F)c1)NCc1ccc(F)cc1,12.1
13,Cc1ccc(S(=O)(=O)NCC(=O)OCC(=O)N2N=C(c3ccc(Cl)cc3)CC2c2ccco2)cc1C (stereo not drawn),13.2
14,O=C(CNC(=O)c1ccccc1F)OCn1nnc2ccccc2c1=O,7.99
15,COc1ccc(/C=N/NC(=O)c2ccncc2)c(C(=O)O)c1OC,6.43
16,Cc1cccc(Nc2nnc(SCC(=O)c3ccc(Br)s3)s2)c1C,15.2
17,O=C(CCCCCn1nnc2ccccc2c1=O)N[C@H](C(=O)O)c1ccccc1,13.9
18,O=C(CSc1ccc2c(c1)OCCO2)N1CCN(c2ccccc2)CC1,6.52
19,COc1cccc(-n2c(CN3CCN(C)CC3)nc3ccc([N+](=O)[O-])cc3c2=O)c1,1.46
20,COc1ccc(-c2nnn(CC(=O)c3ccccc3)n2)cc1OC,9.19
21,CCOc1ccccc1-n1c(O)c(C=NCCCn2ccnc2)c(=O)[nH]c1=O,14.1
22,CC(C)CN(CC(C)C)C(=O)c1cc2c(=O)n3ccccc3nc2s1,12.9

row,SMILES,"hERG current change (%, negative = inhibition) at 1uM [%]"
1,O=c1c2ccccc2nnn1COc1cccc2ccccc12,12
2,O=c1nc2n(c3ncccc13)CCCCC2,6.48
3,O=C(O)C(Oc1ccc2c(c1)oc(=O)c1ccccc12)c1ccccc1 (stereo not drawn),14.6
4,Cc1ccc(C(=O)Nc2ccc(C(=O)N/N=C/c3cccnc3)cc2)cc1,14.6
5,CCOC(=O)c1nn(-c2cccc(OC)c2)c(-c2ccccc2)c1C(=O)c1ccccc1,11.6
6,COc1ccc2[nH]c(=O)c(CN(Cc3cccs3)C(=S)Nc3ccccc3)cc2c1,13.5
7,COCCn1c(SCC(=O)Nc2ccccc2C(F)(F)F)nc2ccccc2c1=O,7.76
8,CN(C)S(=O)(=O)c1ccc(N2CCCC2)c(C(=O)NC2CCCCC2)c1,-4.83
9,CCOC(=O)C1CCCN(C(=O)Cc2ccc(OC)c(OC)c2)C1 (stereo not drawn),16.5
10,CCOC(=O)C1CCN(Cc2ccc(F)cc2)CC1,-0.788
11,CCc1c(C)nc2[nH]nc(-c3ccccc3)n2c1=O,16.3
12,CC(C)[C@@]1(c2ccc(Cl)cc2)ON(c2ccccc2C(F)(F)F)C1=O,-0.157
13,Cc1c(N)c(=O)n(-c2ccccc2)n1C,17.2
14,Cc1nnc2c(NC3CCCC3)nc3ccccc3n12,6.69
15,CCCCCC(=O)N1CCN(CCN=CC2=C(O)CC(c3ccc(OC)c(OC)c3)CC2=O)CC1 (stereo not drawn),-56.5
16,O=C(c1ccncc1)c1ccc(N2CCN(C3CC(=O)N(Cc4cccs4)C3=O)CC2)cc1 (stereo not drawn),-8.32
17,Cc1ccc(N=Nc2ccc3ccccc3c2O)cc1,9.14
18,O=C(CSc1ccsc1[N+](=O)[O-])NC1CCCC1,10.6
19,O=C(CSc1ccc([N+](=O)[O-])cn1)Nc1nccs1,5.78
20,O=C(C1CCCN(S(=O)(=O)c2cccnc2)C1)N1CCN(c2ccccn2)CC1 (stereo not drawn),6.53
21,COc1ccc(C(CNC(=O)c2cc3ccccc3o2)N2CCCCC2)cc1 (stereo not drawn),-9.02
